About 540 (0.36%) of roughly 150,000 compounds showed an effect of 50% or more. The list shows a part of the results.

The subject of the assay is Plasmodium falciparum. Kind of assay: Primary screen in NF54 nanoGlo assay, in single point, at 2uM, 72h; a lower Z score goes with more inhibition. Format: functional, Erythrocyte. As to conditions: timepoint 72 hour.
Regarding `COc1ccc(Cl)cc1Nc1cc(=O)[nH]c2ccccc12`, the % Inhibition (as a rule, the drop in the measured response relative to a control, in per cent) is -3% and the Z score was 0.54.

Take `CC(C(=O)Nc1ccc(OC(F)F)cc1)N1CCCC(CN2CCN(c3ccccn3)CC2)C1` (stereo not drawn): the “% Inhibition” value was determined as 0% and the Z score was 0.01.

On to `Cc1noc(C)c1CN1CCN(c2cc(NCC3CC3)ncn2)CC1`, for which the “% Inhibition” value is -5% and the Z score was 0.78.

For the compound `Cc1nn(C(C)(C)C)c(C)c1C(=O)n1cc(N)nn1`, the “% Inhibition” value was -14% and the Z score was 2.06.

`FC(F)(F)c1c[nH]c(C2CCN(CCCN3CCCCC3)CC2)n1`: the “% Inhibition” value was determined as 4% and the Z score is -0.85.

For `CO[C@@H](C(=O)Nc1nn[nH]n1)c1ccccc1C(F)(F)F`, the “% Inhibition” value was 0% and the Z score came out at 0.01.

As to `C[C@@H](c1ccc(-c2cc(N)nc(N3CCOCC3)n2)cc1)N1CCCC1`, the “% Inhibition” value was -1% and the Z score worked out at 0.32.

On to `CN1CCC(O)C(CN2CCc3[nH]c4c(Cl)cccc4c3C2)C1` (stereo not drawn), for which the “% Inhibition” value is 11% and the Z score is listed as -1.88.

For `CCc1nn2c(=N)c(-c3nc4ccccc4[nH]3)n[nH]c2c1-c1ccc(F)cc1`, the “% Inhibition” value is on record as -7% and the Z score amounted to 1.35.

With `Cc1cc(-c2cccc(C(=O)N(C)C3CCN(C)CC3)c2)cn2ccnc12`, the “% Inhibition” value is on record as 7% and the Z score is recorded as -1.51.

With `O=C(NCc1cc2ccccc2s1)N[C@H](c1ccncc1)C1CC1`, the “% Inhibition” value is recorded as -2% and the Z score was 0.45.

On to `C[C@H](NC(=O)N1CCN(c2cccc3[nH]ccc23)CC1)C1CCC(F)CC1` (stereo partly drawn), for which the “% Inhibition” value is reported as -2% and the Z score amounted to 0.3.

As to `Cc1cc(NCCCN2CCCC[C@@H]2CO)nc(-c2ccccc2O)n1`, the “% Inhibition” value was -12% and the Z score was 2.08.

Take `O=C(Cc1cccc(O)c1)NCc1cc(=O)[nH]c2ccccc12`: the “% Inhibition” value is reported as -4% and the Z score turned out to be 0.76.

For `N#Cc1cnccc1NC1CCN(C[C@H]2CCOC2)CC1`, the “% Inhibition” value is on record as -1% and the Z score was determined as 0.08.

In the case of `Cc1ccc2[nH]cc(-c3cc(N4CCOCC4)nc(N)n3)c2c1`, the “% Inhibition” value was determined as 52% and the Z score was -10.41.

On to `C[C@@H](c1cccc(F)c1)N1CCN(c2ccnc(N3CCOCC3)n2)CC1`, for which the “% Inhibition” value is recorded as -5% and the Z score was determined as 0.84.

Consider `N#Cc1c(C(F)(F)F)cc(N2CCN(Cc3cccc4ccccc34)CC2)n2c1nc1ccccc12`, for which the “% Inhibition” value amounted to 0% and the Z score is recorded as -0.02.

In the case of `Cc1nnc(C(C)NC2CCCc3cc(C#N)ccc32)[nH]1` (stereo not drawn), the “% Inhibition” value came to 0% and the Z score turned out to be 0.08.

In the case of `CCc1nnc(NCCN2CCC(c3ccccc3)CC2)o1`, the “% Inhibition” value worked out at 0% and the Z score was -0.09.

On to `CN1C[C@@H](NC2CCN(c3ccncc3)CC2)[C@H](c2cncn2C)C1`, for which the “% Inhibition” value was -15% and the Z score is recorded as 2.26.

For `CN(CCNc1nccc(-c2ccncc2)n1)S(C)(=O)=O`, the “% Inhibition” value was -2% and the Z score was determined as 0.53.

Regarding `CC1c2cccn2CCN1C(=O)NC1CCN(c2c(F)cccc2F)C1=O` (stereo not drawn), the “% Inhibition” value is reported as -3% and the Z score was 0.44.

Turning to `CN(C)c1ccc(-c2ccc(C(=O)NCCN3CCCCC3)cc2)cn1`, the “% Inhibition” value worked out at 8% and the Z score is on record as -1.44.

Regarding `C[C@H](O)CN1CCC(CN(Cc2coc(-c3ccc(F)cc3)n2)Cc2coc(-c3ccc(F)cc3)n2)CC1`, the “% Inhibition” value is reported as 3% and the Z score was -0.71.

Turning to `O=C(c1cnn(-c2cccc(F)c2)c1C1CCNCC1)N1CCN(c2ccccn2)CC1`, the “% Inhibition” value is given as -7% and the Z score is recorded as 1.2.

As to `CN(CCCc1nccn1C)Cc1cnc2c(-c3ccccc3)cnn2c1`, the “% Inhibition” value is given as -4% and the Z score is 0.77.

In the case of `CNc1nc(Nc2cccc(C(F)(F)F)c2)ncc1Cl`, the “% Inhibition” value amounted to 12% and the Z score is listed as -2.43.

On to `CC(=O)c1cc(C(=O)N2CCCCCC2C2CCCCC2=O)ccc1C` (stereo not drawn), for which the “% Inhibition” value is on record as 3% and the Z score was -0.55.

With `COc1cccc(-c2noc3ncnc(NCCO)c23)c1`, the “% Inhibition” value was -6% and the Z score is 1.12.

Take `NC(=O)c1ccc(CNC(=O)NCC[C@H](O)c2ccccc2)o1`: the “% Inhibition” value is reported as -10% and the Z score is recorded as 1.46.

Regarding `CN(C)c1nc(N2CCC(N3CCN(CCO)CC3)CC2)ncc1F`, the “% Inhibition” value is -1% and the Z score amounted to 0.13.

Turning to `C1CCN2CCC[C@@H](CN3CCC(Cc4noc(C5CC5)n4)CC3)[C@H]2C1`, the “% Inhibition” value was -9% and the Z score was 1.58.

With `CC[C@H](C)N(CC)Cc1cc(O)ccc1Cl`, the “% Inhibition” value is listed as 0% and the Z score worked out at 0.02.

As to `Cc1cc(CC2CN(c3cc(C4CC4)ncn3)CC2O)[nH]n1` (stereo not drawn), the “% Inhibition” value is 0% and the Z score was determined as 0.05.

In the case of `CNc1cc([C@H]2C[C@@H](NC(=O)c3[nH]c4ccccc4c3Cl)C2)nc(N)n1`, the “% Inhibition” value is -4% and the Z score is reported as 0.68.

Take `O=C(c1[nH]c2ccc(Cl)cc2c1-c1ccccc1)N1C2CCNCC1CC2` (stereo not drawn): the “% Inhibition” value was 3% and the Z score was -0.66.

Regarding `CC(CCN1CCCC(c2nnc[nH]2)C1)N1CCCC(c2nnc[nH]2)C1` (stereo not drawn), the “% Inhibition” value was 6% and the Z score is recorded as -1.01.

Consider `COc1cc(CCNc2cc(C3CCN(C)CC3)ncn2)cc(OC)c1`, for which the “% Inhibition” value is -2% and the Z score is on record as 0.29.

As to `F[C@H]1C[C@@H](CNc2ccnc3ccncc23)N(Cc2cncnc2)C1`, the “% Inhibition” value was -7% and the Z score came out at 1.03.

In the case of `Cc1cc(C(=O)O)c(F)c(S(=O)(=O)Nc2cccc3[nH]ncc23)c1`, the “% Inhibition” value is recorded as -9% and the Z score stood at 1.51.

Regarding `O=C(Nc1ccc(Oc2ccccc2)cc1)N1CC2COCCC2(CO)C1` (stereo not drawn), the “% Inhibition” value is reported as -11% and the Z score stood at 1.85.

As to `Cc1nc(CN2CCC3(CC2)CN(c2ncnc4[nH]ccc24)CCO3)c[nH]1`, the “% Inhibition” value stood at 5% and the Z score is listed as -0.79.

As for `COc1nc(-c2cccc([C@H](C)N3CCCC3)c2)ncc1F`, the “% Inhibition” value was determined as 7% and the Z score was -1.15.

As to `Fc1ccc(C2CN(c3nccc(NC4CCCOC4)n3)CCO2)c(Cl)c1` (stereo not drawn), the “% Inhibition” value is given as -3% and the Z score was determined as 0.69.

As to `N#CCCCC(=O)N1CCC(S(=O)(=O)N2CCCC2)CC1`, the “% Inhibition” value is 6% and the Z score is on record as -0.97.

Consider `FC(F)(F)Oc1ccc(N2CCC(NC3CCCCCC3)CC2)cc1`, for which the “% Inhibition” value is -6% and the Z score was determined as 1.23.

Turning to `O=C(CN[C@H]1CCCc2c(O)cccc21)Nc1ccc(N2CCCCC2)nc1`, the “% Inhibition” value is -3% and the Z score is reported as 0.45.

As to `Cn1nnc(-c2ccc(C(=O)NC3CCN(C4CCOCC4)CC3)cc2)n1`, the “% Inhibition” value is -8% and the Z score amounted to 1.32.

Regarding `CC1(NS(=O)(=O)N2CCCC2)CCNCC1`, the “% Inhibition” value was -4% and the Z score is listed as 0.85.

For the compound `CCn1cc(-c2csc(Nc3nc(-c4ccc(OC)c(OC)c4)cc(C(F)F)n3)n2)c(C)n1`, the “% Inhibition” value is given as -6% and the Z score was 0.98.

`Fc1cc(-c2nc3ccncc3[nH]2)ccc1N1CCOCC1`: the “% Inhibition” value is 5% and the Z score is -0.8.

On to `Nc1cccc2c(N3CCC(Nc4cccnn4)CC3)nccc12`, for which the “% Inhibition” value is listed as 0% and the Z score is -0.06.

Take `CCCn1cc(NCc2ccc(N3CCN(C)CC3)c(F)c2)cn1`: the “% Inhibition” value is on record as -12% and the Z score came out at 2.58.

In the case of `Cc1cccc(N2CCC(NC3CCC4(CCNCC4)CC3)CC2)c1`, the “% Inhibition” value is -8% and the Z score was found to be 1.32.

On to `O=C(NCCCN1CCCC[C@@H]1CO)c1cccc(-c2cn[nH]c2)c1`, for which the “% Inhibition” value is on record as -10% and the Z score was found to be 1.76.

Take `CCCOc1ccc(NC(=O)c2oc3cc(Br)ccc3c2C)c2cccnc12`: the “% Inhibition” value was -6% and the Z score stood at 0.89.

For `CNC(=O)c1cc(-c2cc(NC)nc3[nH]ccc23)ccc1Cl`, the “% Inhibition” value is 3% and the Z score was -0.57.

Turning to `CC1CN(c2ccc(CNc3nc4cc(C(F)(F)F)ccc4s3)cn2)CC(C)O1` (stereo not drawn), the “% Inhibition” value is -12% and the Z score was found to be 2.12.

Values taken from ChEMBL document CHEMBL5308541, “MAIP: An Open-Source Tool to Enrich High-Throughput Screening Output and Identify Novel, Druglike Molecules with Antimalarial Activity” (ACS Med Chem Lett, 2023).
